# From PubChem BioAssay AID624171 (National Center for Advancing Translational Sciences (NCATS), 2012)
# About 1,200 (0.29%) of roughly 410,000 compounds were called active. The inconclusive results got no clear call from the source; some entries with a clear call stand among them for comparison. Calls come from the whole dose curve; as a rule, active = well fitted activation curve with a large enough effect; inconclusive = small, poorly fitted or top-dose-only effect; inactive = flat fitted curve, though single readings scatter. Potencies of inconclusive entries are doubtful fits and often do not repeat.
# Assay: qHTS of Nrf2 Activators; note: nearly all actives have a fitted effect of over 65% in size; for activation: % of control where 0% means no effect
# Settings: AREc32 ARE-luciferase reporter (MCF7-derived line), luminescence, 24 h; activation: at 46.1 µM (top of the series)
# Summary of the method: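 Each well held 1000 AREc32 cells, which were incubated with compound for 24 hr at 37 deg C after overnight attachment, and ARE reporter activity was quantified by firefly luciferase luminescence.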
# Potency is the fitted concentration of half-maximal effect; tags give direction and shape of the fitted curve.
SMILES,Potency,activation
S=c1[nH]c(-c2ccccc2)cn1/N=C/c1cccs1,"inconclusive: 15.8 µM [activator, partial curve, poor fit]",
Cc1ccc(-c2ccc(C(=O)NCc3ccc(Cl)cc3)o2)c2ccccc12,"inconclusive: 22.4 µM [activator, single point]",
c1ccc(CNc2nc(NCc3ccco3)nc(N3CCOCC3)n2)cc1,"inconclusive: 10 µM [activator, partial curve]",
Cc1ccc(C2=NN(C(=O)CCl)C(c3cccs3)C2)o1 (centres undefined),"inconclusive: 3.16 µM [activator, single point]",
CC(C)N1C(=O)/C(=C/c2nc3ccccc3c(=O)n2-c2ccccc2)c2ccccc21,"inconclusive: 17.8 µM [activator, single point]",
Cn1c(N)c(C(=O)COC(=O)CC(NC(=O)c2ccccc2Cl)c2ccccc2)c(=O)n(C)c1=O (centres undefined),"inconclusive: 12.6 µM [activator, partial curve, poor fit]",
Cc1ccccc1C(=O)O/N=C(\N)c1cccc([N+](=O)[O-])c1,"inconclusive: 2.24 µM [activator, full curve, poor fit]",
CC1CCCCN1S(=O)(=O)c1cnc(Cl)c(Br)c1 (centres undefined),"inconclusive: 25.1 µM [activator, single point]",
O=C(N/N=C/c1ccc([N+](=O)[O-])s1)c1ccncc1,"inconclusive: 3.98 µM [activator, single point]",
O=C(SCc1c(O)c2ccccc2oc1=O)c1ccccc1,"inconclusive: 20 µM [activator, single point]",
CCN1C=C(Cc2ccccc2C)C2=C(C1)C(c1ccccc1C)C(C#N)=C(N)O2 (centres undefined),"inconclusive: 28.2 µM [activator, single point]",
CCS(=O)(=O)c1nc(S(=O)(=O)c2ccc(Cl)cc2)c(N2CCOCC2)s1,"inconclusive: 6.31 µM [activator, partial curve]",
CCOCCCNC(=S)N1CCN(c2nc(-c3ccccc3)cs2)CC1,,inactive: 0.179%
CNc1sc(C(=O)c2cccs2)c(N)c1-c1nc2ccccc2s1,"inconclusive: 2.82 µM [activator, partial curve, poor fit]",
Cn1c(/C(C#N)=C/c2ccc(C(F)(F)F)cc2)nc2ccccc21,"inconclusive: 31.6 µM [activator, partial curve, poor fit]",
CCN(CC)C(=O)CSc1ncnc2c(-c3cccs3)nsc12,"inconclusive: 12.6 µM [activator, partial curve, poor fit]",
O=C(NNC(=O)C12CC3CC(CC(C3)C1)C2)c1ccccn1,"inconclusive: 31.6 µM [activator, single point]",
O=S(=O)(c1ccc(F)cc1)c1snnc1-c1ccccc1,"inconclusive: 10 µM [activator, partial curve, poor fit]",
CCOC(=O)N1CCN(C(=O)CSCC(=O)Nc2nc(-c3ccc(Cl)s3)cs2)CC1,,inactive: 8.18%
O=C(CN1C(=O)c2cccnc2Oc2ccc(Cl)cc21)NCCCc1ccccc1,,inactive: 0.125%
CCCN1C(=O)SC(CC(=O)Nc2cccc3ccccc23)C1=O (centres undefined),"inconclusive: 25.1 µM [activator, single point]",
O=c1cc(-c2ccccc2)oc2ccc(Cl)cc12,"inconclusive: 3.16 µM [activator, full curve, poor fit]",
COc1ccc(CNc2nc3c(c(=O)n(Cc4ccc(F)cc4)c(=O)n3C)n2C)cc1,,inactive: -0.11%

SMILES,Potency,activation
CCOc1ccc(N2C(=O)CC(N(CCc3ccc(OC)c(OC)c3)C(=S)Nc3ccccc3)C2=O)cc1 (centres undefined),"inconclusive: 31.6 µM [activator, single point]",
Cc1cc(C)n2nc(-c3ccc(Cl)cc3)nc2n1,"inconclusive: 2.82 µM [activator, full curve, poor fit]",
COc1ccc(OC)c(/C=C/c2c([N+](=O)[O-])c(=O)n(C)c(=O)n2C)c1,"inconclusive: 22.4 µM [activator, single point]",
Cc1ccc(C)n1-c1cccc(NC(=O)c2ccccc2)c1,"inconclusive: 14.1 µM [activator, single point]",
O=c1c2ccccc2nnn1CSc1nnc(-c2ccco2)o1,"inconclusive: 15.8 µM [activator, partial curve, poor fit]",
Cc1ccc(O)c(N=CC2=C(O)c3ccccc3C2=O)c1,"inconclusive: 3.16 µM [activator, single point]",
CC1(C)CC(=O)C2=C(C1)c1c(ccc3ccccc13)NC2c1ccco1 (centres undefined),,inactive: 27.3%
COc1ccc(CNC(=O)c2cc(-c3cccc(Cl)c3)on2)cc1,"inconclusive: 35.5 µM [activator, single point]",
Nc1nc(Nc2cccc(F)c2)nc(NCCO)c1[N+](=O)[O-],"inconclusive: 11.2 µM [activator, partial curve, poor fit]",
COc1ccc(C)cc1NC(=O)C1CCN(S(=O)(=O)c2ccc3[nH]c4c(c3c2)CCCCC4)CC1,,inactive: 0.59%
O=c1oc(-c2cccs2)nc2c1cnn2-c1ccccc1,,inactive: -1.28%
CC(=O)CSc1nc2ccccc2s1,,inactive: 2.68%
C=C(CN(C)C)C(=O)c1cc(C)ccc1C,"inconclusive: 3.98 µM [activator, single point]",
O=S(=O)(Nc1cccc2cccnc12)c1ccccc1,"inconclusive: 5.62 µM [activator, single point]",
O=C(Nc1nc2ccc(Cl)cc2s1)c1ccc(Br)o1,"inconclusive: 2 µM [activator, full curve, poor fit]",
CC1=C/C(=N\NC(=S)Nc2cccnc2)CC(C)(C)C1,"inconclusive: 17.8 µM [activator, single point]",
COc1cc(NC(=O)N2CCc3nc(Nc4cc(Cl)cc(Cl)c4)ncc3C2)cc(OC)c1OC,,inactive: -3%
Cc1ccc(/C(N)=N/OC(=O)c2cccc(F)c2)cc1,active: 11.2 µM,
Cc1ccc(NC(=O)C2CC(=O)N/C(=N/N=C/c3ccco3)S2)cc1 (centres undefined),"inconclusive: 12.6 µM [activator, partial curve, poor fit]",
CCOC(=O)c1cc(C#N)c(N2CCCC2)nc1-c1ccccc1,,inactive: 4.52%
COc1nc(-c2ccc(C)cc2)ccc1-c1noc(-c2cccnc2)n1,,inactive: 1.76%
COc1cc(NC(=O)Cn2ncc(Cl)c(Cl)c2=O)c(C)cc1[N+](=O)[O-],"inconclusive: 3.98 µM [activator, single point]",
O=CNc1c(Cl)cc2c(c1Cl)Cc1cc([N+](=O)[O-])ccc1-2,"inconclusive: 4.47 µM [activator, full curve]",

SMILES,Potency,activation
O=C(CSc1nc2ccsc2c(=O)n1NC(=O)c1ccccc1)NCc1ccco1,"inconclusive: 11.2 µM [activator, partial curve]",
Cc1c(C#N)c(N)nc(Cl)c1C#N,"inconclusive: 17.8 µM [activator, partial curve, poor fit]",
Cc1ccc(S(=O)(=O)c2nc(S(C)(=O)=O)sc2N2CCC3(CC2)OCCO3)cc1,"inconclusive: 3.16 µM [activator, full curve]",
Cc1nnc(SCC(=O)N2CCOCC2)c2ccccc12,"inconclusive: 20 µM [activator, single point]",
COc1ccc(Cl)cc1NC(=O)Nc1cccc([N+](=O)[O-])c1C,,inactive: -0.324%
Cc1cc(O)c(NC(=O)c2ccc(Br)o2)cc1C,"inconclusive: 12.6 µM [activator, partial curve, poor fit]",
COc1ccccc1OCC(=O)Nc1nnc(-c2ccco2)s1,active: 11.2 µM,
Fc1ccc(-c2cc(-c3nc(-c4ccccc4)no3)[nH]n2)cc1,,inactive: 5.64%
COc1ccc(C(=O)O/N=C(/C)c2cccs2)cc1,active: 17.8 µM,
O=C(CN1CC(=O)Oc2ccccc21)OCC(=O)c1ccc(F)cc1,"inconclusive: 2.82 µM [activator, full curve, poor fit]",
Cc1nc([N+](=O)[O-])c(Br)n1CC(=O)c1ccc(Cl)cc1,"inconclusive: 3.16 µM [activator, single point]",
COc1ccc(OC)c2c1sc(=NC(=O)c1ccco1)n2C,"inconclusive: 0.562 µM [activator, full curve, poor fit]",
CC(=O)N1CC=C2C(C#N)=C(N)C(C#N)(C#N)C(CCc3ccccc3)C2C1 (centres undefined),"inconclusive: 20 µM [activator, single point]",
CC1=NOC(=O)/C1=C\c1ccc(-c2ccc(Cl)cc2Cl)o1,,inactive: 0.588%
O=[N+]([O-])c1ccc(/C=N/Nc2ccc3ccccc3c2)o1,"inconclusive: 3.98 µM [activator, partial curve, poor fit]",
Cc1nc(C)c(-c2ccnc(/N=C/NO)n2)s1,,inactive: -0.677%
C=C1CCC[C@]2(C)C[C@H]3OC(=O)C(CNC(C)CC)[C@H]3CC12 (some centres undefined),"inconclusive: 3.16 µM [activator, single point]",
CC1CCN(C(=O)c2cc3c(ccc4ccccc43)o2)CC1,,inactive: -0.615%
Brc1ccc2c(c1)[C@H]1OCC[C@H]1[C@@H](c1cccs1)N2,"inconclusive: 12.6 µM [activator, partial curve]",
COc1cccc(C=NNc2nc3ccccc3s2)c1OC,"inconclusive: 10 µM [activator, partial curve]",
COc1ccc(C2C(=O)N(C3CCC(C)CC3)CC(=O)N2C2CCCCC2)cc1OC (centres undefined),,inactive: -0.52%
Cc1cc(S(=O)(=O)c2ccc([N+](=O)[O-])cn2)ccc1Br,active: 12.6 µM,
CN(C)c1oc(/C=C/c2ccccc2)nc1C#N,active: 7.94 µM,
